Measurements taken from PubChem BioAssay AID624202 (National Center for Advancing Translational Sciences (NCATS), 2012).
Screen size: about 380,000 compounds; about 4,000 (1.1%) were called active. Inconclusive results, whose numbers are uncertain, are shown with a selection of clear calls. Calls come from the whole dose curve; as a rule, active = well fitted activation curve with a large enough effect; inconclusive = small, poorly fitted or top-dose-only effect; inactive = no such curve, though single readings can be large or run the other way. Potencies beside an inconclusive call are fits to weak or partial responses and may not hold up.

Experiment: qHTS Assay to Identify Small Molecule Activators of BRCA1 Expression; note: nearly all actives have a fitted effect of over 80% in size
Settings: MCF7-BRCA1-FFLuc reporter, luminescence, 48 h; activation: at 46.1 µM (top of the series), scaled: vehicle 0%, 10 µM genistein 100% unless noted
Outline: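 Compounds are tested at multiple concentrations on MCF7 BRCA1-luciferase reporter cells seeded at 2000 per well; after 48 h, a single luminescence end-point is taken and curves fitted to the normalized data.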
Potency is the fitted concentration of half-maximal effect; tags give direction and shape of the fitted curve.

**Q.** Which Potency does the source give for `CCCCN(C(=O)CSc1nnc(Nc2ccc(C)c(C)c2)s1)c1c(N)n(Cc2ccccc2)c(=O)[nH]c1=O` here?
**A.** The Potency was inconclusive: 2 µM [activator, partial curve, poor fit].

**Q.** Which “activation” value does the source give for `c1ccc(CN2CC[C@@H](Nc3nccn4ccnc34)C2)cc1` here?
**A.** The value was inactive: 0%.

**Q.** With `CCc1noc(-c2ccc(N3CCCCC3C)c([N+](=O)[O-])c2)n1` (stereo not drawn) as the molecule, how does the Potency read?
**A.** Its Potency is inconclusive: 10 µM [activator, partial curve, poor fit].

**Q.** Which “activation” value does the source give for `O=[N+]([O-])c1cc(C(F)(F)F)cc([N+](=O)[O-])c1NCCNC(=S)Nc1ccc(Cl)c(Cl)c1` here?
**A.** The value was inactive: -49%.

**Q.** For `c1ccc(-c2csc(N3CCOCC3)n2)cc1`, which Potency is on record?
**A.** Its Potency is inconclusive: 12.6 µM [activator, partial curve, poor fit].

**Q.** Which Potency does the source give for `CC(C)(C)c1ccc(C(=O)N2CCC(C(=O)NCc3ccncc3)CC2)cc1` here?
**A.** Its Potency is inconclusive: 1.78 µM [activator, full curve, poor fit].

**Q.** Which “activation” value does the source give for `Cc1ccc2nc(SCC(=O)Nc3ccccc3N3CCOCC3)c(C#N)cc2c1` here?
**A.** The value was inactive: -4%.

**Q.** Which Potency does the source give for `N/C(=N\OC(=O)COc1ccc2ccccc2c1Br)c1ccccn1` here?
**A.** Its Potency is active: 10 µM.

**Q.** For `COc1cccc(N(C(=O)c2nc3nccc(C)n3n2)c2nc3ccccc3s2)c1`, which Potency is on record?
**A.** The Potency was inconclusive: 0.631 µM [activator, full curve, poor fit].

**Q.** For `OC(c1ccccc1)c1nc(-c2cnc3ccccc3c2)cs1` (stereo not drawn), which Potency is on record?
**A.** The Potency was inconclusive: 12.6 µM [activator, single point].

**Q.** With `Cc1ccc(OCc2ccc(C(=O)Nc3ccc(S(N)(=O)=O)cc3)o2)cc1` as the molecule, how does the Potency read?
**A.** The Potency was active: 10 µM.

**Q.** Which Potency does the source give for `Nc1ccc(CCc2nc3ccccc3o2)cc1` here?
**A.** The Potency was active: 2.82 µM.

**Q.** With `Cc1cc(OC(C)C(=O)N(Cc2ccco2)C2CCS(=O)(=O)C2)ccc1Cl` (stereo not drawn) as the molecule, how does the “activation” value read?
**A.** The value was inactive: -9.63%.

**Q.** Which Potency does the source give for `Cc1cc(C)n2nc(C(=O)NCCc3ccccc3)nc2n1` here?
**A.** Its Potency is inconclusive: 2.82 µM [activator, partial curve, poor fit].

**Q.** With `Cc1nc(C(F)(F)F)ccc1C(=O)Nc1ccc2ccccc2n1` as the molecule, how does the Potency read?
**A.** Its Potency is inconclusive: 12.6 µM [activator, partial curve, poor fit].

**Q.** With `O=C(COc1ccc2c(c1)OCO2)Nc1ccccc1C(F)(F)F` as the molecule, how does the Potency read?
**A.** The Potency was active: 10 µM.

**Q.** Which Potency does the source give for `CCCc1nnc(NC(=O)c2cc3ccccc3o2)s1` here?
**A.** Its Potency is active: 5.01 µM.

**Q.** Which Potency does the source give for `Fc1ccc(-c2cn3cc(Cc4ccc(Cl)cc4)sc3n2)cc1` here?
**A.** The Potency was active: 4.47 µM.

**Q.** For `O=c1[nH]cccc1-c1nc2ccccc2[nH]1`, which Potency is on record?
**A.** Its Potency is active: 8.91 µM.

**Q.** For `O=C(CNC(=O)c1ccccc1Cl)c1ccccc1`, which Potency is on record?
**A.** The Potency was inconclusive: 1.26 µM [activator, partial curve, poor fit].

**Q.** Which Potency does the source give for `COc1ccc(C(=O)CCNc2cccc(Cl)c2)cc1` here?
**A.** The Potency was inconclusive: 35.5 µM [activator, single point].

**Q.** With `C[C@H]1CCC(=O)N(CCSc2ccc(Br)cc2)CC1` as the molecule, how does the Potency read?
**A.** Its Potency is inconclusive: 17.8 µM [activator, single point].

**Q.** For `Oc1csc(Cc2nc(-c3ccccc3F)cs2)n1`, which Potency is on record?
**A.** Its Potency is inconclusive: 17.8 µM [activator, partial curve, poor fit].

**Q.** Which Potency does the source give for `Clc1ccc(-c2nnsc2SCc2ccccc2)cc1` here?
**A.** The Potency was inconclusive: 35.5 µM [activator, single point].

**Q.** With `O=C(Nc1nccs1)c1ccc(-c2cccc([N+](=O)[O-])c2)o1` as the molecule, how does the Potency read?
**A.** Its Potency is inconclusive: 3.16 µM [activator, partial curve, poor fit].

**Q.** For `CCCCc1nc2cc(C(=O)N3CCN(c4nc(C)cnc4C)CC3)ccc2o1`, which Potency is on record?
**A.** The Potency was inconclusive: 11.2 µM [activator, partial curve, poor fit].

**Q.** For `COc1ccc(C(=O)OCC(=O)c2ccc[nH]2)cc1`, which “activation” value is on record?
**A.** Its value is inactive: 89.4%.

**Q.** Which “activation” value does the source give for `Cc1ccc(S(=O)(=O)N(CC(=O)Nc2cccnc2)c2ccccc2C)cc1` here?
**A.** The value was inactive: -8.08%.

**Q.** With `CCc1ccc(C(=O)NCc2cccs2)s1` as the molecule, how does the Potency read?
**A.** Its Potency is inconclusive: 10 µM [activator, partial curve, poor fit].

**Q.** Which Potency does the source give for `O=C(NCCc1nnc2ccccn12)c1cccs1` here?
**A.** Its Potency is inconclusive: 12.6 µM [activator, partial curve, poor fit].

**Q.** Which Potency does the source give for `O=C1c2ccccc2S(=O)(=O)c2cc(N3CCC4(CC3)OCCO4)ccc21` here?
**A.** The Potency was inconclusive: 7.94 µM [activator, partial curve, poor fit].

**Q.** Which Potency does the source give for `N=C1C(c2nc3ccccc3s2)=C(O)CN1Cc1ccco1` here?
**A.** Its Potency is active: 7.08 µM.

**Q.** For `Cc1cc(OCC(=O)NNC(=S)NC(=O)c2cccs2)ccc1Cl`, which “activation” value is on record?
**A.** Its value is inactive: -23%.

**Q.** Which activation does the source give for `Cc1cc(C2=NNC(=NC3CC3)SC2)c(C)n1-c1ccccc1F` here?
**A.** The activation was inconclusive: -89.2% [activator].

**Q.** For `COc1ccc(C(CC(=O)c2ccccc2)S(=O)(=O)c2ccccc2)cc1` (stereo not drawn), which Potency is on record?
**A.** Its Potency is inconclusive: 8.91 µM [activator, partial curve, poor fit].

**Q.** Which Potency does the source give for `ClCCn1cnc2c(SCc3ccccc3)ncnc21` here?
**A.** The Potency was inconclusive: 5.01 µM [activator, partial curve, poor fit].

**Q.** Which Potency does the source give for `COc1ccc(/C(N)=N/OC(=O)CSc2ccccc2)cc1` here?
**A.** Its Potency is inconclusive: 2.51 µM [activator, full curve, poor fit].

**Q.** With `COc1ccc(-c2cc(=O)c3cc(O)ccc3o2)cc1` as the molecule, how does the Potency read?
**A.** Its Potency is inconclusive: 1.26 µM [activator, full curve, poor fit].

**Q.** With `O=C(NCCc1ccccc1)c1ccc(NCC2CCCO2)c([N+](=O)[O-])c1` (stereo not drawn) as the molecule, how does the Potency read?
**A.** The Potency was inconclusive: 3.98 µM [activator, partial curve, poor fit].

**Q.** For `COc1ccccc1-c1nc(-c2ccc(C)nc2OC)no1`, which Potency is on record?
**A.** Its Potency is inconclusive: 2.82 µM [activator, full curve, poor fit].

**Q.** With `CC(=O)N(CCC(c1ccccc1)c1ccco1)Cc1cccs1` (stereo not drawn) as the molecule, how does the “activation” value read?
**A.** Its value is inactive: -23.3%.

**Q.** Which “activation” value does the source give for `COC(=O)[C@H]1C[C@H]1[C@@H](NC(=O)c1cccnc1)c1ccccc1` here?
**A.** The value was inactive: 14.3%.

**Q.** Which “activation” value does the source give for `CCOC(=O)CCc1c(C)nc(SCCCn2c(=O)[nH]c3ccccc32)c(C#N)c1C` here?
**A.** The value was inactive: 12%.

**Q.** For `O=C(c1ccccc1)c1ccc2nc[nH]c2c1`, which Potency is on record?
**A.** The Potency was inconclusive: 12.6 µM [activator, partial curve, poor fit].

**Q.** For `O=C(N/N=C/c1cccs1)c1ccc2c(c1)OCO2`, which Potency is on record?
**A.** The Potency was inconclusive: 1.26 µM [activator, full curve, poor fit].

**Q.** With `COc1ccc(Nc2ncnc3sccc23)cc1` as the molecule, how does the Potency read?
**A.** Its Potency is active: 7.08 µM.

**Q.** With `Fc1ccc(CSc2nnc3ccccn23)c(Cl)c1` as the molecule, how does the Potency read?
**A.** The Potency was active: 10 µM.

**Q.** For `COc1ccc(-c2nnc(SCC(=O)Nc3cccc(Cl)c3)o2)cc1`, which Potency is on record?
**A.** Its Potency is inconclusive: 22.4 µM [activator, single point].

**Q.** For `COc1cccc(OC)c1C(=O)Nc1nnc(-c2cccs2)s1`, which “activation” value is on record?
**A.** Its value is inactive: -62.1%.

**Q.** For `COc1ccc(-c2cc3nnc(-c4ccccc4)nc3s2)cc1`, which activation is on record?
**A.** Its activation is inconclusive: 148% [activator].

**Q.** For `CCC(C)(C)C1CCc2c(sc(NC(=O)c3ccccc3C(=O)O)c2C#N)C1` (stereo not drawn), which “activation” value is on record?
**A.** Its value is inactive: -4.56%.

**Q.** Which Potency does the source give for `O=C(NC1CCCCCCC1)NC1CCCCC1` here?
**A.** Its Potency is inconclusive: 12.6 µM [activator, single point].

**Q.** With `Cc1cc(O)ccc1Nc1nc(-c2cccnc2)cs1` as the molecule, how does the Potency read?
**A.** The Potency was inconclusive: 1.58 µM [activator, partial curve, poor fit].

**Q.** With `O=S1(=O)N[C@@H](CC2CCCCC2)COc2cc(Br)ccc21` as the molecule, how does the “activation” value read?
**A.** The value was inactive: -14.4%.

**Q.** With `CCCN(C(=O)Cn1cc(S(=O)(=O)N2CCN(c3ccccc3F)CC2)c2ccccc2c1=O)c1cccc(C)c1` as the molecule, how does the “activation” value read?
**A.** Its value is inactive: -2.67%.

**Q.** Which Potency does the source give for `CN(C)/C=C(\C#N)C(=O)Nc1ccc(F)cc1` here?
**A.** Its Potency is inconclusive: 12.6 µM [activator, partial curve, poor fit].

**Q.** For `COc1ccc(C(=O)C=Cc2cccs2)c(O)c1`, which Potency is on record?
**A.** The Potency was inconclusive: 12.6 µM [activator, partial curve, poor fit].

**Q.** Which Potency does the source give for `COc1ccc(C(=O)Cc2ccc(OC)c(OC)c2)cc1` here?
**A.** Its Potency is inconclusive: 6.31 µM [activator, partial curve, poor fit].

**Q.** Which Potency does the source give for `O=C(Cn1ncc(N2CCCC2)c(Br)c1=O)c1ccc(Cl)cc1` here?
**A.** Its Potency is active: 1.41 µM.

**Q.** For `COc1ccc(C(=O)Nc2ccc([N+](=O)[O-])cn2)c(OC)c1`, which Potency is on record?
**A.** Its Potency is inconclusive: 1.58 µM [activator, full curve, poor fit].

**Q.** Which Potency does the source give for `O=C(/C=C/c1ccccc1Cl)NC1CCCCC1` here?
**A.** The Potency was inconclusive: 11.2 µM [activator, partial curve, poor fit].

**Q.** For `O=C(Cn1nnc(-c2ccccc2F)n1)Nc1ccc2c(c1)OCCO2`, which Potency is on record?
**A.** Its Potency is active: 8.91 µM.

**Q.** For `O=C(CCN1C(=O)C2C3C=CC(C3)C2C1=O)Nc1nccs1` (stereo not drawn), which “activation” value is on record?
**A.** The value was inactive: -0.176%.

**Q.** With `COc1ccc(C(=O)Nc2cccc(OC(=O)c3ccco3)c2)cc1` as the molecule, how does the Potency read?
**A.** Its Potency is inconclusive: 25.1 µM [activator, partial curve, poor fit].

**Q.** Which “activation” value does the source give for `O=C(CSc1nc2ccccc2nc1SCC(=O)N1CCCCC1)N1CCCCC1` here?
**A.** Its value is inactive: -24%.

**Q.** For `CCOC(=O)C1C(=O)N(C(=O)c2cncc(Br)c2)CC1c1ccccc1` (stereo not drawn), which “activation” value is on record?
**A.** Its value is inactive: 17.4%.

**Q.** For `Cc1ccnc(NC(=O)Nc2ccc(F)cc2)c1`, which Potency is on record?
**A.** The Potency was inconclusive: 3.16 µM [activator, partial curve, poor fit].

**Q.** Which Potency does the source give for `CCOC(=O)c1[nH]c2ccc(C)cc2c1N` here?
**A.** Its Potency is inconclusive: 2.24 µM [activator, full curve, poor fit].

**Q.** With `CCc1ccc(NC(=O)CSc2ccccn2)cc1` as the molecule, how does the Potency read?
**A.** The Potency was inconclusive: 11.2 µM [activator, partial curve, poor fit].

**Q.** For `O=C1COc2ccc(C(=O)COc3ccc([N+](=O)[O-])cc3)cc2N1`, which “activation” value is on record?
**A.** Its value is inactive: -2.94%.

**Q.** With `Cc1cc(C)c2c(=N)c3ccccc3n(CCCCCCCCn3c4ccccc4c(=N)c4c(C)cc(C)nc43)c2n1` as the molecule, how does the “activation” value read?
**A.** The value was inactive: -102%.

**Q.** With `N#CCc1nc(CSc2nc3ccccc3s2)cs1` as the molecule, how does the Potency read?
**A.** The Potency was inconclusive: 11.2 µM [activator, partial curve, poor fit].

**Q.** Which Potency does the source give for `CCC(=O)Nc1ccc(-c2csc(C)n2)cc1` here?
**A.** The Potency was inconclusive: 17.8 µM [activator, partial curve, poor fit].
